# Test results published in PubChem BioAssay AID1159614 (National Center for Advancing Translational Sciences (NCATS), 2016).
# Screen size: about 45,000 compounds; about 65 (0.1%) were called active. Calls come from the whole dose curve; as a rule, active = well fitted activation curve with a large enough effect; inconclusive = small, poorly fitted or top-dose-only effect; inactive = no such curve, though single readings can be large or run the other way. The list shows a part of the results.
# Biological target: Galactocerebrosidase (Homo sapiens) (UniProt P54803)
# Sequence of UniProt P54803 (P54803 whole entry, looked up): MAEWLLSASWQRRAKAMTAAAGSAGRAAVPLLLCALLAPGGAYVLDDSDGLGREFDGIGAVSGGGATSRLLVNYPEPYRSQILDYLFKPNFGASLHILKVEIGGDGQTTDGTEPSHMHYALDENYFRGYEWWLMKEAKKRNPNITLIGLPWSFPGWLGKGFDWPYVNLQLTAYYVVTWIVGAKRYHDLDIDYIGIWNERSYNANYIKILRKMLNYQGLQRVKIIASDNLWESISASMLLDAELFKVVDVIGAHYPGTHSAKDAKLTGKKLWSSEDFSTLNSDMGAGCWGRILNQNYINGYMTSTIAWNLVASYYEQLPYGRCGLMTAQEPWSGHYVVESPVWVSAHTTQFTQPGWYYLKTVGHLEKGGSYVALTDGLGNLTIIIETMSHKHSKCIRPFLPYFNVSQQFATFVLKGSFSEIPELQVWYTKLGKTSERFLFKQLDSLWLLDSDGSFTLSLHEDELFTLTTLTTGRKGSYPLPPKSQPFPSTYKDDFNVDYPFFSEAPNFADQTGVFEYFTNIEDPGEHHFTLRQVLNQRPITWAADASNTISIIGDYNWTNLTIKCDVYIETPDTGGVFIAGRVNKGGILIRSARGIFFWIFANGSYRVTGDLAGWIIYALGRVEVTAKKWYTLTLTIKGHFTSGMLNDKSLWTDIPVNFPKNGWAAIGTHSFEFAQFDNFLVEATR
# Experiment: A Novel Cell-Based Assay to Identify Small Molecules for B -Galactocerebrosidase; note: nearly all actives have a fitted effect of over 65% in size; for activation: 0% is about no effect
# Conditions: 145M-Twi-hGALC-G270D cells (Twitcher mouse brain line with human GALC G270D), HMU-beta-Gal fluorescence, 48 h; series mostly up to 57.5 µM; activation: at the top concentration
# In short: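 Live 145M-Twi cells (Twitcher mouse brain-derived, GALC-null) stably expressing human GALC-G270D, with a wild-type GALC line, were compound-treated. Residual GALC activity was then read as fluorescence from 0.1 mM final HMU-β-gal at pH 5.2; higher signal means activation.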
# Potency is the fitted concentration of half-maximal effect.
SMILES,activation,Potency
Cc1cc(C)c(CSc2nnc(C)n3c2cc2occc23)c(C)c1,inactive: -15.6%,–
COc1cc(NC(=O)c2noc3c2CSc2ccccc2-3)cc(OC)c1OC,inactive: 1.91%,–
COc1cc(C(=O)Nc2nc3nc(-c4ccccc4)cc(=O)n3[nH]2)cc(OC)c1OC,inactive: -7.16%,–
Cc1ccn2c(=O)cc(CSc3nnc(NC(=O)c4ccccc4Cl)s3)nc2c1,inactive: 0.5%,–
O=C(NC1CCCCC1)c1cc(Nc2cccc(C(F)(F)F)c2)nc2ccccc12,inactive: -18.6%,–
Cc1ccc(SCc2nc(-c3ccc(C(=O)NCc4ccc(Cl)cc4)cc3)oc2C)cc1,inactive: -20.3%,–
CCn1cc(C(=O)N2CCN(c3cc(C)ccc3C)CC2)c(=O)c2cc(S(=O)(=O)N3CCOCC3)ccc21,inactive: 7.89%,–
CCn1c(=O)n(CC)c2cc(N3CCCCC3)c(NC(=O)Nc3cc(C)cc(C)c3)cc21,inactive: -14%,–
COc1ccc(Cl)cc1NC(=O)Cn1c(=O)n(Cc2ccco2)c(=O)c2cccnc21,inactive: -26.6%,–
COc1ccccc1CNC(=O)C(=O)NCC(c1ccco1)S(=O)(=O)c1cccs1 (configuration not stated),inactive: -15%,–
CCOc1ccc(NC(=O)C(NS(=O)(=O)c2cccc3nsnc23)c2ccccc2)cc1 (configuration not stated),inactive: -15.9%,–
O=C(NC1CCCCC1)c1cc2c(Cl)nc3ccccc3c2s1,inactive: -3.47%,–
O=C(CCN1CCN(CCO)CC1)N1c2ccccc2Sc2ccc(C(F)(F)F)cc21,inactive: -13.5%,–
Cc1cccc(-c2noc(CN(C(=O)COc3ccc(Br)cc3C)C(C)C)n2)c1,inactive: -33%,–
OCCCc1nc2ccccc2n1CCCCOc1ccccc1,inactive: 8.43%,–
COc1ccc(C(=O)NCCn2cc(SCC(=O)Nc3cccc(C)c3)c3ccccc32)cc1,inactive: -8.74%,–
CCOC(=O)c1c(N)n(-c2cccc(OC)c2)c2nc3ccccc3nc12,–,active: 3.98 µM
Cc1cccc(-n2ncc3c(Nc4ccc(Oc5ccc(Cl)cc5)cc4)ncnc32)c1,inactive: -22.6%,–
COc1cc(-c2nc3nc[nH]n3c2Nc2ccc(C(C)C)cc2)ccc1O,inactive: -30.1%,–
COCCc1nn2c(=O)cc(COC(=O)c3ccc(OC)c(OC)c3)nc2s1,inactive: -13.6%,–
Cc1ccc(C)n1-c1c(C(=O)NCCC(C)C)sc2ncccc12,inactive: -29.3%,–
CCOC(=O)C1CCN(C(=O)Cn2c(=O)cc(C)c3c(C)nn(C)c32)CC1,inactive: -8.39%,–
Cc1oc2ncn(CC(C)C)c(=O)c2c1C(=O)N1CCN(c2cccc(C(F)(F)F)c2)CC1,inactive: -9.81%,–
COc1cccc(NC(=O)CSC2=Nc3ccccc3C3=NC(CC(=O)NCCc4ccccc4)C(=O)N23)c1 (configuration not stated),inactive: -1.99%,–

SMILES,activation,Potency
Cc1ccc(CNC(=O)CCCCn2c(=O)c3ccccc3n(Cc3c(C)cc(C)cc3C)c2=O)cc1,inactive: -6.35%,–
COc1ccccc1N1CCN(C(=O)Cn2ncc3c([nH]c4ccccc43)c2=O)CC1,inactive: -8.13%,–
CCOC(=O)c1ccccc1NC(=O)Cn1c(=O)n(Cc2nc(-c3ccccc3)no2)c(=O)c2ccccc21,inactive: -10%,–
CCc1ccc(-n2c(SCc3ccccc3F)nc3[nH]ncc3c2=O)cc1,inactive: -15.2%,–
O=C(CCc1nc(CN2CCN(S(=O)(=O)c3ccc(F)cc3)CC2)no1)N1CCCCC1,inactive: -15.7%,–
CCc1ccc(C(=O)c2cn(CC(=O)NCCc3ccc(OC)c(OC)c3)c3nc(C)ccc3c2=O)cc1,inactive: 3.41%,–
C[C@]12C[C@H](O)[C@H]3[C@@H](CCC4=CC(=O)CC[C@@]43C)[C@@H]1CC[C@@H]2C(=O)CO,inactive: -12.9%,–
O=C(c1ccc2c(c1)N(Cc1ccccc1F)C(=O)c1ccccc1S2(=O)=O)N1CCCCC1,inactive: -13.7%,–
COc1cccc(NC(=O)CSC2=Nc3ccccc3N=C(c3ccc(F)cc3)C2)c1,inactive: 1.13%,–
CCOCCCNC(=O)NC(C)c1c(-n2cccc2)sc2c1CCN(CC)C2 (configuration not stated),inactive: 12.2%,–
COc1ccc(OC)c(S(=O)(=O)N2CCC(c3ccncc3)CC2)c1,inactive: -10.5%,–
O=c1nc2sc3ccccc3n2c(=O)n1-c1ccc(Cl)c(Cl)c1,inactive: -15.2%,–
O=C1c2[nH]nc(-c3ccccc3O)c2C(c2ccc(Cl)cc2)N1Cc1ccco1 (configuration not stated),inactive: -4.14%,–
Cc1ccc(C2C=C(c3ccc(Cl)cc3)Nc3nc(NS(=O)(=O)c4ccccc4)nn32)cc1 (configuration not stated),inactive: -16%,–
CCN1CCN(C(=O)c2cnn(-c3ccc(F)cc3)c2-n2cccc2)CC1,inactive: -17.1%,–
O=C(CCC1N=C2c3ccccc3N=C(SCC(=O)Nc3ccccc3F)N2C1=O)NCc1ccccc1 (configuration not stated),inactive: -17%,–
COc1ccccc1NC(=O)Cn1c(=O)n(-c2cccc(C(C)=O)c2)c(=O)c2c3c(sc21)CN(C(C)=O)CC3,inactive: -18.9%,–
CC(=O)Nc1ccc(S(=O)(=O)NCC2CCC(C(=O)NCCc3ccccc3)CC2)cc1 (configuration not stated),inactive: -19.8%,–
Cc1nn(C(=O)c2cccc([N+](=O)[O-])c2C)c(C)c1S(=O)(=O)N1CCOCC1,inactive: -7.29%,–
CC(C)c1ccc(S(=O)(=O)c2nnn3c2nc(NCCc2ccccc2)c2sccc23)cc1,inactive: 7.45%,–
CC(CCc1ccccc1)NC(=O)Cn1ncc2c3ccccc3n(Cc3ccc(F)cc3)c2c1=O (configuration not stated),inactive: -11.2%,–
CCCn1c(=O)c2sccc2n2c(CCCC(=O)NCCc3ccc(Cl)cc3)nnc12,inactive: -12.2%,–
Cc1ccc(CNC(=O)c2cc3sccc3n2Cc2ccc(Cl)cc2)cc1,inactive: 11.4%,–
